Measurements published in the supplement of paper PMC8728848.
Some of the results follow.

Experiments:
Experiment in all cases: glycan array binding signal (z-score within array); higher = stronger binding
Settings in all cases: glycan notation: IUPAC condensed, linker removed
Fuc(a1-2)Gal = biological target: Fuc(a1-2)Gal
Outline: (§1)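 Glycan array binding is given as a within-array Z-score, which can be read as non-binding when negative. The arrays, 3228 of them, came from the Consortium for Functional Glycomics database and were retained only where the protein sequence was available. Z-scores were averaged across arrays of the same protein sequence at different concentrations or buffers and across linkers.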

Fuc(a1-2)Gal(b1-3)GalNAc = biological target: Fuc(a1-2)Gal(b1-3)GalNAc
Outline: as §1

[1] = biological target: Fuc(a1-2)Gal(b1-3)GalNAc(a1-3)[Fuc(a1-2)]Gal(b1-4)Glc
Outline: as §1

[2] = biological target: Fuc(a1-2)Gal(b1-3)GalNAc(a1-3)[Fuc(a1-2)]Gal(b1-4)GlcNAc
Outline: as §1

[3] = biological target: Fuc(a1-2)Gal(b1-3)GalNAc(b1-3)Gal
Outline: as §1

[4] = biological target: Fuc(a1-2)Gal(b1-3)GalNAc(b1-3)Gal(a1-4)Gal(b1-4)Glc
Outline: as §1

[5] = biological target: Fuc(a1-2)Gal(b1-3)GalNAc(b1-4)[Neu5Ac(a2-3)]Gal(b1-4)Glc
Outline: as §1

Fuc(a1-2)Gal(b1-3)GlcNAc = biological target: Fuc(a1-2)Gal(b1-3)GlcNAc
Outline: as §1

[6] = biological target: Fuc(a1-2)Gal(b1-3)GlcNAc(b1-2)Man(a1-3)[Fuc(a1-2)Gal(b1-3)GlcNAc(b1-2)Man(a1-6)]Man(b1-4)GlcNAc(b1-4)GlcNAc
Outline: as §1

[7] = biological target: Fuc(a1-2)Gal(b1-3)GlcNAc(b1-2)Man(a1-3)[Fuc(a1-2)Gal(b1-3)GlcNAc(b1-2)Man(a1-6)]Man(b1-4)GlcNAc(b1-4)[Fuc(a1-6)]GlcNAc
Outline: as §1

[8] = biological target: Fuc(a1-2)Gal(b1-3)GlcNAc(b1-3)Gal(b1-4)Glc
Outline: as §1

[9] = biological target: Fuc(a1-2)Gal(b1-3)GlcNAc(b1-3)GalNAc
Outline: as §1

[10] = biological target: Fuc(a1-2)Gal(b1-3)GlcNAc(b1-3)[Fuc(a1-2)Gal(b1-3)GlcNAc(b1-6)]GalNAc
Outline: as §1

[11] = biological target: Fuc(a1-2)Gal(b1-3)GlcNAc(b1-3)[Gal(b1-4)GlcNAc(b1-6)]Gal(b1-4)Glc
Outline: as §1

[12] = biological target: Fuc(a1-2)Gal(b1-3)GlcNAc(b1-3)[Neu5Ac(a2-6)Gal(b1-4)GlcNAc(b1-6)]Gal(b1-4)Glc
Outline: as §1

[13] = biological target: Fuc(a1-2)Gal(b1-3)GlcNAc6S
Outline: as §1

[14] = biological target: Fuc(a1-2)Gal(b1-3)[Fuc(a1-4)]GlcNAc
Outline: as §1

[15] = biological target: Fuc(a1-2)Gal(b1-3)[Fuc(a1-4)]GlcNAc(b1-2)Man(a1-3)[Fuc(a1-2)Gal(b1-3)[Fuc(a1-4)]GlcNAc(b1-2)Man(a1-3)]Man(b1-4)GlcNAc(b1-4)GlcNAc
Outline: as §1

[16] = biological target: Fuc(a1-2)Gal(b1-3)[Fuc(a1-4)]GlcNAc(b1-2)Man(a1-3)[Fuc(a1-2)Gal(b1-3)[Fuc(a1-4)]GlcNAc(b1-2)Man(a1-6)]Man(b1-4)GlcNAc(b1-4)[Fuc(a1-6)]GlcNAc(b1-4)[Fuc(a1-6)]GlcNAc
Outline: as §1

[17] = biological target: Fuc(a1-2)Gal(b1-3)[Fuc(a1-4)]GlcNAc(b1-3)[Fuc(a1-3)[Gal(b1-4)]GlcNAc(b1-6)]Gal(b1-4)Glc
Outline: as §1

[18] = biological target: Fuc(a1-2)Gal(b1-3)[Fuc(a1-4)]GlcNAc(b1-3)[Gal(b1-4)GlcNAc(b1-6)]Gal(b1-4)Glc
Outline: as §1

Fuc(a1-2)Gal(b1-4)Glc = biological target: Fuc(a1-2)Gal(b1-4)Glc
Outline: as §1

Fuc(a1-2)Gal(b1-4)Glc6S = biological target: Fuc(a1-2)Gal(b1-4)Glc6S
Outline: as §1

Fuc(a1-2)Gal(b1-4)GlcNAc = biological target: Fuc(a1-2)Gal(b1-4)GlcNAc
Outline: as §1

[19] = biological target: Fuc(a1-2)Gal(b1-4)GlcNAc(b1-2)Man
Outline: as §1

[20] = biological target: Fuc(a1-2)Gal(b1-4)GlcNAc(b1-2)Man(a1-3)[Fuc(a1-2)Gal(b1-4)GlcNAc(b1-2)Man(a1-6)]Man(b1-4)GlcNAc(b1-4)GlcNAc
Outline: as §1

[21] = biological target: Fuc(a1-2)Gal(b1-4)GlcNAc(b1-2)Man(a1-3)[Fuc(a1-2)Gal(b1-4)GlcNAc(b1-2)Man(a1-6)]Man(b1-4)GlcNAc(b1-4)[Fuc(a1-6)]GlcNAc
Outline: as §1

[22] = biological target: Fuc(a1-2)Gal(b1-4)GlcNAc(b1-2)[Fuc(a1-2)Gal(b1-4)GlcNAc(b1-4)]Man(a1-3)[Fuc(a1-2)Gal(b1-4)GlcNAc(b1-2)Man(a1-6)]Man(b1-4)GlcNAc(b1-4)GlcNAc
Outline: as §1

[23] = biological target: Fuc(a1-2)Gal(b1-4)GlcNAc(b1-3)Gal(b1-4)GlcNAc
Outline: as §1

[24] = biological target: Fuc(a1-2)Gal(b1-4)GlcNAc(b1-3)Gal(b1-4)GlcNAc(b1-2)Man(a1-3)[Fuc(a1-2)Gal(b1-4)GlcNAc(b1-3)Gal(b1-4)GlcNAc(b1-2)Man(a1-6)]Man(b1-4)GlcNAc(b1-4)GlcNAc
Outline: as §1

B1: PX15618A-bth-503-24-503 (Bacteroides thetaiotaomicron) (protein)
chain: NKSEDKLSGDDFWAQGNETNAEAFLLSIYNSFRNATMSQRPFLTYSGDMRCAPITAYSTGDKYVAYLANNDMGELRNTYPDDARGGLIMQWDVFYTAIQDANILLAEIDKVPGMDELKRSRFKAEAIFMRSLSYFFIVRAFGDVPYYTNAYNEAPLPRTNMVIVLQNCLADLQPLLDDDPGAEVLPWSYSSYSSKGIRASRGSVIALMMHINLWLVQFDAQNKEQYYRNVVSLGEELERNNGAYSLLDINRSSVIFAGGSDEGLFEIAQNINFNEIFMMNAKFSDNVSYSCLNKSMPLFCYSGDYLMTLFPMYEDDARKELWFDEKIYSTSVSSSAPKEIKKFWNIDTYGNGTITSNSGNQIVFRYAGALLLYAEALAALGTNDTKACELLNRVRNRAHASEINTSGSELMDAIFWERCRELIGEGHYYYDLVRTGKVYNRNYCMNPMTRTNFNVGAWTWPIHRNALKNNTQIGLNLFWE
glycan array binding signal (z-score) (Fuc(a1-2)Gal): -0.399
glycan array binding signal (z-score) (Fuc(a1-2)Gal(b1-3)GalNAc): -0.582
glycan array binding signal (z-score) [1]: -0.315
glycan array binding signal (z-score) [2]: -0.737
glycan array binding signal (z-score) [3]: -0.651
glycan array binding signal (z-score) [4]: -0.425
glycan array binding signal (z-score) [5]: -0.169
glycan array binding signal (z-score) (Fuc(a1-2)Gal(b1-3)GlcNAc): -0.618
glycan array binding signal (z-score) [6]: 1.01
glycan array binding signal (z-score) [7]: -0.198
glycan array binding signal (z-score) [8]: -0.23
glycan array binding signal (z-score) [9]: 0.317
glycan array binding signal (z-score) [10]: 0.662
glycan array binding signal (z-score) [11]: -0.299
glycan array binding signal (z-score) [12]: -0.016
glycan array binding signal (z-score) [13]: -0.001
glycan array binding signal (z-score) [14]: -0.295
glycan array binding signal (z-score) [15]: -0.043
glycan array binding signal (z-score) [16]: 0.712
glycan array binding signal (z-score) [17]: -0.326
glycan array binding signal (z-score) [18]: -0.438
glycan array binding signal (z-score) (Fuc(a1-2)Gal(b1-4)Glc): -0.293
glycan array binding signal (z-score) (Fuc(a1-2)Gal(b1-4)Glc6S): -0.055
glycan array binding signal (z-score) (Fuc(a1-2)Gal(b1-4)GlcNAc): -0.574
glycan array binding signal (z-score) [19]: -0.103
glycan array binding signal (z-score) [20]: 2.2
glycan array binding signal (z-score) [21]: -0.648
glycan array binding signal (z-score) [22]: -0.077
glycan array binding signal (z-score) [23]: -0.297
glycan array binding signal (z-score) [24]: -0.144
